Experimental findings from PubChem BioAssay AID463173 (ICCB-Longwood Screening Facility, Harvard Medical School, 2010) are described below.

SMILES strings stand for the structures. Out of some 52,000 compounds screened, about 1,700 (3.3%) were called active. Rule as the data show it: active = survival mostly below about 52% (no sharp cut-off); inactive = mostly above about 56%. The list shows a part of the results.

The test system of the assay is Wild type. As to the kind of experiment: S. aureus survival, RN4220 and DeltatarO strains – OD600, teichoic acid synthesis inhibitors, primary screen (AID 463173). The note with it: S. aureus RN4220 wild type/DeltatarO growth, OD600, 18 h, active compounds read low, screened at 18.75 µg/mL (by protocol).
With `Cc1ccc2oc(=O)c3cnn(CC(=O)N(C)c4ccc(F)cc4)c3c2c1`, the survival was inactive: 90%.

In the case of `CCc1ccccc1NC(=O)CN(Cc1ccccc1)S(=O)(=O)c1ccc2nc(C)sc2c1`, the survival is inactive: 74%.

As for `COc1ccc(N2CCN(C(=O)Cc3c(C(=O)O)c(C)cn3C)CC2)cc1`, the survival is active: 14%.

Turning to `CCOC(=O)c1c(NC(=O)CCCOc2ccc(C(C)(C)C)cc2)sc2c1CCC2`, the survival is active: 7%.

On to `CC(C)=CC(=O)Nc1nnc(-c2ccccc2)s1`, for which the survival is inactive: 106%.

With `COc1ccc(-n2nc3ccc(NC(=O)COc4ccc(C)c(C)c4)cc3n2)cc1`, the survival was inactive: 70%.

On to `CCC(OC(=O)C1=Cc2ccccc2OC1)C(=O)NC1CCCC1` (configuration not stated), for which the survival was inactive: 112%.

Take `CCCSc1nc(=O)c2c(n1C)NC(=O)CC2c1cccc(F)c1F` (configuration not stated): the survival was inactive: 82%.

For `O=C(Cn1c(-c2cccs2)cc2cc(Cl)ccc21)NCc1ccccc1`, the survival is inactive: 69%.

In the case of `CCc1cc(C(=O)Nc2cnn(Cc3ccc(F)cc3)c2)no1`, the survival was inactive: 70%.

As for `Cc1cccc(NC(=O)Cn2cc(S(=O)(=O)c3ccc(F)cc3)c(=O)c3cc4c(cc32)OCO4)c1`, the survival is inactive: 123%.

On to `CCC(=O)N1CCc2cc(Br)cc(S(=O)(=O)NCCc3ccccc3Cl)c21`, for which the survival is inactive: 73%.

For `Cc1ccc(-c2c(C(=O)N3CCN(c4cccc(C)c4C)CC3)oc(=O)c3ccccc23)cc1`, the survival is inactive: 86%.

Regarding `CC(=O)c1cccc(NC(=O)c2cnn(-c3cccc(C)c3)c2-n2cccc2)c1`, the survival is inactive: 124%.

On to `COc1ccc(OC)c(CCNC(=O)c2cc3c(-c4ccccc4F)nn(C)c3s2)c1`, for which the survival is inactive: 88%.

In the case of `CC(C)(C)NC(=O)C1CC(=O)OC1(C)C` (configuration not stated), the survival is inactive: 107%.

Consider `COc1ccc(C)cc1NS(=O)(=O)c1ccc2c(c1)[C@H]1C=CC[C@H]1[C@@H](c1cccc(Cl)c1)N2`, for which the survival was inactive: 97%.

`Cc1cc(C)cc(NC(=O)CSCn2nnc3c(=O)[nH]c(Cc4ccc(F)cc4)nc32)c1`: the survival was inactive: 86%.

Turning to `COc1ccc(CCNC(=O)CCc2c(C)nc3cc(-c4ccccc4)nn3c2C)cc1OC`, the survival was inactive: 93%.

In the case of `CCOc1cc(C(=O)Nc2ccc3oc(-c4ccc(CC)cc4)nc3c2)cc(OCC)c1OCC`, the survival was inactive: 71%.

In the case of `COc1ccccc1CCNC(=O)CCn1c(=O)c2cccn2c2ccc(F)cc21`, the survival was inactive: 49%.

As for `Cc1noc(/C=C/c2ccco2)c1S(=O)(=O)N1CCC(C(=O)Nc2ccc(F)cc2F)CC1`, the survival was inactive: 71%.

In the case of `CCOC(=O)c1cccc(NC(=O)Cn2c(=O)nc(-c3ccccc3)c3ccccc32)c1`, the survival was inactive: 68%.

For the compound `O=C(Nc1cc(C(F)(F)F)ccc1Cl)c1cc(S(=O)(=O)NCc2ccccc2)ccc1F`, the survival is active: 14%.

Consider `Cc1cccc(OCc2ccc(-c3nc(C#N)c(N4CCC(C(N)=O)CC4)o3)o2)c1`, for which the survival was inactive: 102%.

With `CCc1cc2c(cc3c(=O)n(CCCC(=O)NCc4ccccc4Cl)nc(CC)n32)s1`, the survival was inactive: 73%.

Regarding `CCCCN(Cc1ccccc1)C(=O)CN(C)S(=O)(=O)c1ccc2c(c1)c(=O)n(C)c(=O)n2C`, the survival was inactive: 130%.

Turning to `Cc1ccc(OCC(=O)Nc2ccc3nc(SCc4ccccc4)sc3c2)cc1`, the survival is inactive: 93%.

Turning to `CCOC(=O)c1cccc(NC(=O)CC2C(=O)N(c3ccc(F)cc3)C(=O)N2C(C)C)c1` (configuration not stated), the survival was inactive: 69%.

On to `COc1ccc(NC(=O)C(Cc2ccccc2)NS(=O)(=O)c2ccc(Br)s2)cc1OC` (configuration not stated), for which the survival was inactive: 66%.

`COCCCNC(=O)CC(c1cc(OC)c(OC)c(OC)c1)N1Cc2ccccc2C1=O` (configuration not stated): the survival is inactive: 72%.

As for `Cc1ccc(-c2nc3ncccc3o2)cc1NC(=O)COc1ccc(C(C)C)cc1`, the survival was active: 11%.

In the case of `Cc1cc(C)c2nc(-c3ccco3)cc(C(=O)O)c2c1`, the survival is inactive: 106%.

As to `Cc1ccc(C)n1CCC(=O)O`, the survival was inactive: 115%.

As to `COc1ccc(CCNC(=O)c2cnc3sc(N4CCCC4)nn3c2=O)cc1OC`, the survival was inactive: 74%.

Turning to `CN(C(=O)c1cc2c(s1)-c1ccc(Cl)cc1SC2)c1cccc(C(F)(F)F)c1`, the survival was inactive: 54%.

Regarding `O=C(CN1C(=O)COc2ccc(S(=O)(=O)N3CCCCC3)cc21)NCc1ccc(Cl)cc1`, the survival was inactive: 65%.

Regarding `Cc1ccc(CNC(=O)c2nnn(CC(=O)Nc3cc(C)ccc3C)c2N)cc1`, the survival is inactive: 75%.

Regarding `CSCCC(NS(=O)(=O)c1ccc2c(c1)oc(=O)n2C)C(=O)N1CCN(c2cccc(Cl)c2)CC1` (configuration not stated), the survival was inactive: 68%.

For the compound `CCOc1ccc(-c2nnc(-c3ccc(Br)cc3)o2)cc1OCC`, the survival was inactive: 107%.

`Cc1ccc(CN(Cc2ccco2)C(=O)COc2ccc(Cl)cc2)o1`: the survival was inactive: 84%.

Take `CCOc1ccc(-c2cc(-c3nc(-c4cc(OC)c(OC)c(OC)c4)no3)[nH]n2)cc1`: the survival was inactive: 123%.

For the compound `COc1cc(NC(=O)c2cc3ccccn3n2)cc(OC)c1OC`, the survival was inactive: 66%.

On to `COc1ccccc1NC(=O)CC(C)(C)C`, for which the survival was inactive: 108%.

For `CCc1ccccc1NS(=O)(=O)c1ccc(NC(=O)N2CCCC2)cc1`, the survival is inactive: 75%.

With `c1ccc(Nc2nc(-c3ccncc3)cs2)cc1`, the survival is inactive: 123%.

Take `Fc1ccc(-c2noc3ncnc(NCC4CCN(Cc5ccc(Cl)cc5)CC4)c23)cc1`: the survival is inactive: 81%.

`CC(=O)c1ccc(NC(=O)c2ccc(-c3nc(CSc4ccccc4)c(C)o3)cc2)cc1`: the survival is inactive: 55%.

Consider `CN1C(=O)CC(C(=O)O)SC1=Nc1cccc(C(F)(F)F)c1` (configuration not stated), for which the survival is inactive: 116%.

Consider `COc1cc(NC(=O)c2cc(C)nc3c2c(C)nn3-c2ccccc2Cl)cc(OC)c1`, for which the survival is inactive: 76%.

`CCn1nnnc1SCC(=O)N1c2ccccc2CCc2ccccc21`: the survival was inactive: 107%.

In the case of `CCn1c(SCC(=O)Nc2cccc(Cl)c2C)nnc1C1CC1`, the survival was inactive: 99%.

As for `Cc1ccc2cc3c(N)nn(C(=O)c4cccc(F)c4)c3nc2c1`, the survival is inactive: 81%.

In the case of `Cc1cc(C)cc(NC(=O)Cn2nnc(-c3nc(-c4ccncc4)no3)c2N)c1`, the survival was inactive: 71%.

With `Cc1cc2c(cc3c(SCc4nc(-c5ccccc5)oc4C)nnc(C)n32)o1`, the survival was inactive: 85%.

On to `Cc1ccc(N2CCN(S(=O)(=O)c3ccc(F)c(C(=O)Nc4ccc(Cl)cc4Cl)c3)CC2C)cc1` (configuration not stated), for which the survival was active: -6%.

`COc1cc(C(c2nnnn2Cc2ccco2)N2CCN(C3CCCC3)CC2)cc(OC)c1OC` (configuration not stated): the survival is inactive: 107%.
